Laboratory results reported in PMC7819943, “Rice protein-binding microarrays: a tool to detect cis-acting elements near promoter regions in rice”.
The other results are listed elsewhere or left out.

Target: T1, OsWOX13 (Oryza sativa, UniProt Q5QMM3 1-267)
T1 sequence: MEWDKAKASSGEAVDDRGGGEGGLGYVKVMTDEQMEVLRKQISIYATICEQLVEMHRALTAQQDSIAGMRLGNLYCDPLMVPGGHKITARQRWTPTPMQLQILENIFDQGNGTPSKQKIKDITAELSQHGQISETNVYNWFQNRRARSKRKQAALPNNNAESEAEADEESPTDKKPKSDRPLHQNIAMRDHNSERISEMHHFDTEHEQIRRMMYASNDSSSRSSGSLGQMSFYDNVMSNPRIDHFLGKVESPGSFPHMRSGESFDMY
Assay: protein-binding microarray (RPBM); PBS, 2% BSA, 51.3 ng/ul salmon testes DNA, 50 uM zinc acetate, 200 nM TF, 25 C, 1 h; high values mean tight binding
Details: protein: recombinant; tags: N-terminal polyhistidine and DsRed monomer fusion (pET32a); label: CyDye5-dUTP incorporated in the synthesized complementary strand; 3' TTTTT single-stranded linker to array surface; dsDNA, one strand shown
Outline: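 Polyhistidine-tagged DsRed fusions of transcription factors, joined at the N-terminus, were expressed in E. coli BL21-CodonPlus and isolated on Ni–NTA. They were incubated at 200 nM for 1 h at 25 °C on a custom Agilent array, double-stranded and BSA-blocked, in PBS with 2% BSA, salmon testes DNA and 50 µM zinc acetate. The binding signal is per-feature fluorescence intensity (arbitrary units) read on an Axon 4000B scanner after washing.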

Row | Sequence | binding signal
1 | AATGCCATTATGATATGATTAATTAAGTATTAACTATGATCGGAGTCACCTAGTGCAG | 9040 fluorescence intensity (a.u.)
2 | TATTACTAAATCTCATGCATGATTGACGAATACTTGCATACGGAGTCACCTAGTGCAG | 18200 fluorescence intensity (a.u.)
3 | CCCTGACCTCTTAATTACTCCCTCTCTCTCACACTCACACCGGAGTCACCTAGTGCAG | 6570 fluorescence intensity (a.u.)
4 | GTGGTTCTGAATTTTGATTGCTTCGTGCTTTTCGTTTGGGCGGAGTCACCTAGTGCAG | 6990 fluorescence intensity (a.u.)
5 | AGAGTACATGATTACCACCAAACACTGGGATGTACTTATACGGAGTCACCTAGTGCAG | 6510 fluorescence intensity (a.u.)
6 | TTCATAACTTTATTTCTCAATCAATCATAAACTTGTCCCACGGAGTCACCTAGTGCAG | 27000 fluorescence intensity (a.u.)
7 | GATGACTTTGTCAATCTCAAGATATGCTCATAGGGGATAGCGGAGTCACCTAGTGCAG | 10500 fluorescence intensity (a.u.)
8 | AAAGATTATGAATTATGGATATTAGGAGAGAACTGGGATACGGAGTCACCTAGTGCAG | 5070 fluorescence intensity (a.u.)
9 | AGCTAAATTGCAGCTGCTGTGCAGCAGCTGTGCTACAGTGCGGAGTCACCTAGTGCAG | 3790 fluorescence intensity (a.u.)
10 | TTGGCTTTGGATTGAACAATTCGGTGGATAGACGTGTAGACGGAGTCACCTAGTGCAG | 3540 fluorescence intensity (a.u.)
11 | ACATAAAATATAGTCTGATGAGTGATGATAGCCCTAACATCGGAGTCACCTAGTGCAG | 4610 fluorescence intensity (a.u.)
12 | TTTGGTAATTGTACATGCCGGGTATTATATTGTTCTGACGCGGAGTCACCTAGTGCAG | 6530 fluorescence intensity (a.u.)
13 | CTTAATTAATGCAATGACAATTTAGGTGGGGAACCTCTCCCGGAGTCACCTAGTGCAG | 42200 fluorescence intensity (a.u.)
14 | AATTGTTTGATTGAAATTAATGTACTCTTGAATGGATAAACGGAGTCACCTAGTGCAG | 32600 fluorescence intensity (a.u.)
15 | CTCTAAATTAGTGTTTAAATATATGGACTAAAGTTAAGTCCGGAGTCACCTAGTGCAG | 33400 fluorescence intensity (a.u.)
16 | GTAAATCAATTTAGTTATATGTTCTATCTAGCCTGTAACTCGGAGTCACCTAGTGCAG | 18200 fluorescence intensity (a.u.)
17 | TTCTAATTTCTAACGAGTTTATCTCTCTCATCCAATTCCTCGGAGTCACCTAGTGCAG | 8040 fluorescence intensity (a.u.)
18 | CATATAAATTGGGAAGCCAAGTCCCAGCTTCTGAAAGCATCGGAGTCACCTAGTGCAG | 16900 fluorescence intensity (a.u.)
19 | GAGTCTAATTAGTCTATGATTAGTCATAAGTGCTATAGTACGGAGTCACCTAGTGCAG | 39300 fluorescence intensity (a.u.)
20 | CTACCATGTTTTAATTAACAAACCAAATGGAAGATCATGACGGAGTCACCTAGTGCAG | 7490 fluorescence intensity (a.u.)
21 | AGCCTAAATCATTTTATTGATGCTAAAATCCCACTGTACACGGAGTCACCTAGTGCAG | 4330 fluorescence intensity (a.u.)

Row | Sequence | binding signal
22 | CTATATAACCGCCAATCCTCTCACTGACGAACGCCAAGAGCGGAGTCACCTAGTGCAG | 3630 fluorescence intensity (a.u.)
23 | TCTTAATTAATATAATGTCACATAAGTTAAAAGTTCTAGTCGGAGTCACCTAGTGCAG | 41000 fluorescence intensity (a.u.)
24 | TAATTTAACGGGAACTAATTTGGTGTTGTAGATGTTGCTACGGAGTCACCTAGTGCAG | 11600 fluorescence intensity (a.u.)
25 | ATTTATAATTAGAGAATGTTTACTGTAGCATCACGCGGGCCGGAGTCACCTAGTGCAG | 11100 fluorescence intensity (a.u.)
26 | GATGATAAATTTATCTGTGATCCTCAAGAAAAGCTTGGAACGGAGTCACCTAGTGCAG | 24100 fluorescence intensity (a.u.)
27 | CAGTAGATTTGGATTAATAATTTAAGATCGCAGTAAGGTTCGGAGTCACCTAGTGCAG | 28600 fluorescence intensity (a.u.)
28 | AGATGCTGATTGGTTGCGAACTATCTGTTCAATTTGCATCCGGAGTCACCTAGTGCAG | 46300 fluorescence intensity (a.u.)
29 | TATTTTCCAATTAACCCATTTGGCATTGGTAGGATCTAGACGGAGTCACCTAGTGCAG | 4650 fluorescence intensity (a.u.)
30 | ACATGATTACTTCTCACGTTTGCGTGCCCTGAGTTCTCTCCGGAGTCACCTAGTGCAG | 36000 fluorescence intensity (a.u.)
31 | GAGACAAATCTTTTAAGCCTAATTGCTCCATGATTTGACACGGAGTCACCTAGTGCAG | 15800 fluorescence intensity (a.u.)
32 | CACGGGATTAGTAATTTTGTACTACTAGTGTGCCGTAGTTCGGAGTCACCTAGTGCAG | 19900 fluorescence intensity (a.u.)
33 | GTGGACGCTTGTAATTGGCTAGGTGACAAATCTCATCTGCCGGAGTCACCTAGTGCAG | 18200 fluorescence intensity (a.u.)
34 | ATTGATAGTCTAAGTTATAAAAGTTTGACCATTTCCACTACGGAGTCACCTAGTGCAG | 6720 fluorescence intensity (a.u.)
35 | GTGAATTTGATAGGGCGATAAGGATAATAAACAAGAACATCGGAGTCACCTAGTGCAG | 3540 fluorescence intensity (a.u.)
36 | ATTGATAATTACTTAAGTTTATTGAATAAGACGAACAGTCCGGAGTCACCTAGTGCAG | 33700 fluorescence intensity (a.u.)
37 | AGACCCTGACAGTCTGACAGAATCCAGGTACAGAGTTCTACGGAGTCACCTAGTGCAG | 5500 fluorescence intensity (a.u.)
38 | GTTAATTTGAACAACATTGGTTAGAGATAACATGAATTTACGGAGTCACCTAGTGCAG | 11600 fluorescence intensity (a.u.)
39 | CAAGAGAGTATGGGAGATTGACAAGTGGACCCATGGGCAACGGAGTCACCTAGTGCAG | 4220 fluorescence intensity (a.u.)
40 | CAACCGCATAAATTGTTTCGCACTTACAGCTGGACCCTATCGGAGTCACCTAGTGCAG | 3440 fluorescence intensity (a.u.)
41 | ATAATGGGAAATGTGGGGTAGGATTGGTATTGGAAAATGACGGAGTCACCTAGTGCAG | 3410 fluorescence intensity (a.u.)
42 | GGACTAATTAGATTCAAAAGGTTCGTCTCGAGCTATCTATCGGAGTCACCTAGTGCAG | 28100 fluorescence intensity (a.u.)
